Among all 310,000 compounds or so, about 14,000 (4.5%) showed an effect of 50% or more. The effect is printed as a negative number. The list shows a part of the results.
molecular target: human ether-à-go-go-related gene (hERG) potassium channel (human, UniProt Q12809); assay: primary screen, population patch clamp on CHO cells stably expressing hERG
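Further: peak tail current of the secondary pulse compared with the same well before compound.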

Sequence of human ether-à-go-go-related gene (hERG) potassium channel (Q12809 whole entry, looked up): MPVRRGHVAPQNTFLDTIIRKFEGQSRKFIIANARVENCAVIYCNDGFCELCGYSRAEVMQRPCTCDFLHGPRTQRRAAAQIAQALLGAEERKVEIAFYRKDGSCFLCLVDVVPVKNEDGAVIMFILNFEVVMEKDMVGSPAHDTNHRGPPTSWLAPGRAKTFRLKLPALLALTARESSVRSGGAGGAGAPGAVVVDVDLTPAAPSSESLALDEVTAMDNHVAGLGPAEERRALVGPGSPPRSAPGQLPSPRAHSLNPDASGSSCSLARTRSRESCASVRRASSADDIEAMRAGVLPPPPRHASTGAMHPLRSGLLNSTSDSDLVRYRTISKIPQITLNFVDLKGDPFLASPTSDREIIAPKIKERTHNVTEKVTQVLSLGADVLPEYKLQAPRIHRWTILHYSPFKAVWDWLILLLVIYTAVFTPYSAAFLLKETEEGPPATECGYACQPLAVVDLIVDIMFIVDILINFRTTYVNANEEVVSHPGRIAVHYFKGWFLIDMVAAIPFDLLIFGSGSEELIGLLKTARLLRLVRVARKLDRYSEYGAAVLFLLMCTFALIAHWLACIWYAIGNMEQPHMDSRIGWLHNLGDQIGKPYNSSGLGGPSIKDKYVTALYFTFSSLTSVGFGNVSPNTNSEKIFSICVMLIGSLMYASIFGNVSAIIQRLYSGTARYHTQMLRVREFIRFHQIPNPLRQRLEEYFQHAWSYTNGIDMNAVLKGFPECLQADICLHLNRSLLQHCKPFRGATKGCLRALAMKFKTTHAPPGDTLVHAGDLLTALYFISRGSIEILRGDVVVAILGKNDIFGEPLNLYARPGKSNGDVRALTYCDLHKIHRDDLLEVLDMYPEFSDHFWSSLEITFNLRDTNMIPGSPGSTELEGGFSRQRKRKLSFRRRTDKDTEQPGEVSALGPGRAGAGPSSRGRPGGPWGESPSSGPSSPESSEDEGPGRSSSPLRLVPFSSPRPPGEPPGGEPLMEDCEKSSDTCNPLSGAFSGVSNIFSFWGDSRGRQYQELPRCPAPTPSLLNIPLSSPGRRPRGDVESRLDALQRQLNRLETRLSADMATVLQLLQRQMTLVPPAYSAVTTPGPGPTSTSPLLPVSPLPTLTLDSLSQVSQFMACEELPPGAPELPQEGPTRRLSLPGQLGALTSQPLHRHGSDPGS

Going from O=C1C2C3C=CC(C4CC34)C2C(=O)N1/N=C/c1c[nH]c2ccccc12 (centres unmarked) to O=c1c2ccccc2nc2ccc(N3CCOCC3)nn12, the “hERG current change (%, negative = inhibition) at 10uM” value falls from 5.34% to 2.35%.

Going from Cc1cc(F)ccc1S(=O)(=O)Nc1ccccc1C(=O)N1CCCC1 to O=C(COc1ccc(NS(=O)(=O)c2ccc(F)cc2)cc1)N1CCOCC1, the “hERG current change (%, negative = inhibition) at 10uM” value rises from 1.27% to 6.42%.

Compared with Cc1ccc(Nc2nnc(SCC(=O)Nc3cc(C(=O)O)ccc3C)s2)c(C)c1, COc1ccc(C)cc1NC(=O)C(Sc1nnc(-c2cccs2)o1)c1ccccc1 (centres unmarked) is lower in “hERG current change (%, negative = inhibition) at 10uM” value: 8.1% for the first, -20.4% for the second.

Going from Cc1ccc(OCC(=O)NCCN2CCN(C(=O)COc3ccc(C)cc3)CC2)cc1 to COc1ccc(-n2c(Cc3cccn3C)nnc2SCC(=O)NC2CCCCC2)cc1, the “hERG current change (%, negative = inhibition) at 10uM” value rises from -65.9% to -15.1%.

Going from C=CCN1C(=O)C(Cc2ccc(Br)cc2)S/C1=N\N=C\c1ccco1 (centres unmarked) to O=C(CSc1nc2c(c(=O)n1-c1ccc(Br)cc1)SCC2)NCc1ccco1, the “hERG current change (%, negative = inhibition) at 10uM” value falls from -1.85% to -17.8%.

First: Cc1ccccc1-c1nc(S(=O)(=O)c2ccc(Br)cc2)c(NCc2cccnc2)o1
Second: O=c1ccc2cc3c(-c4ccccc4)coc3cc2o1
The “hERG current change (%, negative = inhibition) at 10uM” value of the first is lower: -1.91% for the first, 7.58% for the second.

Going from O=[N+]([O-])c1ccc(F)c(N=Cc2ccc(Br)s2)c1 to O=[N+]([O-])c1cc(/C=N\O)ccc1Oc1ccc(F)cc1, the “hERG current change (%, negative = inhibition) at 10uM” value falls from 8.36% to -72.1%.

First: CCN(CC)CCNC(=O)c1ccccc1N
Second: CCCNC(=O)Cc1ccsc1
The “hERG current change (%, negative = inhibition) at 10uM” value of the first is lower: -5.76% for the first, 9.93% for the second.

Going from CN(CC(=O)Nc1ccccc1Cl)C(=O)CN1C(=O)NC(c2ccccc2)(c2ccccc2)C1=O to CN(CC(=O)NNC(=O)CNC(=O)c1ccccc1F)S(=O)(=O)c1ccc(Cl)cc1, the “hERG current change (%, negative = inhibition) at 10uM” value rises from -66.8% to -5.72%.

Going from Cc1cc(C(=O)N2CCC(CO)(Cc3cccc(C(F)(F)F)c3)CC2)n[nH]1 to Cc1nc(C)n(CC(C)C(=O)N2CCN(S(=O)(=O)c3ccccc3)CC2)n1 (centres unmarked), the “hERG current change (%, negative = inhibition) at 10uM” value rises from -49.4% to 20.3%.

Going from CCN1CCN(CCCN(Cc2ccco2)C(=S)Nc2ccccc2Cl)CC1 to CCOc1cc(Cl)c(CNCCCN2CCOCC2)cc1OC, the “hERG current change (%, negative = inhibition) at 10uM” value rises from -53.5% to 18.6%.

Going from CC(=O)OC[C@H]1O[C@@H](n2ncc(=O)[nH]c2=O)[C@H](OC(C)=O)[C@@H]1OC(C)=O to CC(=O)N1c2ccc(S(=O)(=O)NCC3CCC(C(=O)Nc4cccc(C)n4)CC3)cc2CC1C (centres unmarked), the “hERG current change (%, negative = inhibition) at 10uM” value falls from 19.6% to -17.3%.

Going from COc1cc(C2C(C#N)=C(N)OC3=C2C(=O)CCC3)cc2c1OCO2 (centres unmarked) to COC(=O)CCCC1=CC2=C(c3ccccc3)C(=O)C(C)(OC(=O)C3CCCC3)C(=O)C2=CN1Cc1ccc2c(c1)OCO2 (centres unmarked), the “hERG current change (%, negative = inhibition) at 10uM” value rises from -6.46% to -3.01%.

Compared with CC/C(=N\N1CCCCCC1)c1c(O)n(-c2ccc(C)cc2)c(=O)[nH]c1=O, Cc1ccc(N2C(=O)CC(Sc3nc(C)cc(C)n3)C2=O)cc1 (centres unmarked) is higher in “hERG current change (%, negative = inhibition) at 10uM” value: -19% for the first, 12% for the second.

First: O=C(NCc1ccncc1)c1cc(F)c(F)cc1Cl
Second: Cc1cc(=O)n2nc(N3CCCC(C(=O)NCc4ccccc4Cl)C3)sc2n1 (centres unmarked)
The “hERG current change (%, negative = inhibition) at 10uM” value of the first is higher: 14.2% for the first, -18.7% for the second.

First: Cc1nc2nc(CCNS(=O)(=O)c3ccc(Cl)cc3)cn2nc1C
Second: Cc1ccc(S(=O)(=O)Nc2ccc3c(c2)OCCO3)cc1C
The “hERG current change (%, negative = inhibition) at 10uM” value of the first is higher: 11.6% for the first, 8.12% for the second.

Going from Cc1cc(C)n(CC(C)C(=O)O)n1 (centres unmarked) to CCC(=O)Nc1cccc(SC)c1, the “hERG current change (%, negative = inhibition) at 10uM” value rises from 14.2% to 28.9%.

Compared with COc1ccc(-c2csc(NC(=O)C3CSC4(C)CCC(=O)N34)n2)c(OC)c1 (centres unmarked), COc1ccc2oc(=O)c(-c3nc(C)cs3)cc2c1 is higher in “hERG current change (%, negative = inhibition) at 10uM” value: -2.85% for the first, 2.63% for the second.

Going from Cc1cccc(-n2nc3c(c2NC(=O)c2ccc4c(c2)OCO4)CS(=O)(=O)C3)c1C to Cc1c(C(=O)NNC(=O)Nc2ccc([N+](=O)[O-])cc2)oc2ccccc12, the “hERG current change (%, negative = inhibition) at 10uM” value falls from 10.4% to 1.35%.

Going from CCCCc1cc(=O)oc2c(C)c(OCc3nn[nH]n3)ccc12 to COc1ccc(S(=O)(=O)Nc2ccccn2)cc1OC, the “hERG current change (%, negative = inhibition) at 10uM” value rises from -2.31% to 6.99%.

First: O=C(CNC1CCCCC1)Nc1ccc(Cl)cc1
Second: OCCC1CN(Cc2cnc(-c3ccc(Cl)cc3)nc2)CCN1C1CCCC1 (centres unmarked)
The “hERG current change (%, negative = inhibition) at 10uM” value of the first is higher: -5.47% for the first, -73.5% for the second.

First: COC(=O)c1ccc(CNC(=O)C2CCC(=O)N(Cc3ccccn3)C2)cc1 (centres unmarked)
Second: O=C(CSc1nc(-c2ccc(F)cc2)cs1)NC(=O)NCc1ccco1
The “hERG current change (%, negative = inhibition) at 10uM” value of the first is higher: 13.8% for the first, -13% for the second.

Source: publication PMC4336329 (PLoS ONE, 2015)
